{"source": "PubChem BioAssay AID938", "about": "(National Center for Advancing Translational Sciences (NCATS), 2007)", "note": "About 1,800 (2.5%) of roughly 73,000 compounds were called active. This list was built around the results that the source calls inconclusive (neither active nor inactive); the mix of calls is not that of the screen. The call rests on the fitted dose curve; in most records, active means well fitted activation curve with a large enough effect; inconclusive means small, poorly fitted or top-dose-only effect; inactive means no such curve, though single readings can be large or run the other way. Potencies of inconclusive entries are left out as doubtful fits. Potency means the concentration at half of the fitted maximal effect; tags describe the fitted curve by direction and shape."}
{"assay": "qHTS Assay for Agonists of the Thyroid Stimulating Hormone Receptor: Activators of Intracellular cAMP Concentrations in Parental HEK 293; further: nearly all actives have a fitted effect of over 55% in size; on activation: % of control where 0% means no effect", "conditions": "parental HEK293 CNG cAMP sensor, membrane potential fluorescence; activation: at 57.1 µM (top of the series) unless noted", "summary_of_the_method": "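Parental HEK 293 cells stably expressing a cAMP-gated CNG channel were loaded with membrane potential dye containing 100 uM RO 20-1724 for 60 min. Compound added for 30 min; depolarization read as fluorescence intensity at 590 nm.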"}
{"molecule": "Cc1c(C#N)c(N)c(C(=O)c2ccccc2)n1Cc1ccccc1", "Potency": "inconclusive [activator, partial curve]"}
{"molecule": "O=C(C1CCCCC1)N1CCN(C(=O)C2CCCCC2)CC1", "Potency": "inconclusive [activator, single point]"}
{"molecule": "CCOC(=O)c1cnc(N(C)C)nc1SC(=N)N", "activation": "inactive: 7.33% [at 11.4 µM]"}
{"molecule": "COc1ccc(CCNC(=O)CN(C)S(=O)(=O)c2cccc3nsnc23)cc1OC", "Potency": "inconclusive [activator, full curve]"}
{"molecule": "COc1ccc(-c2nnc(CSc3nc4ccccc4c(=O)n3CC(C)C)o2)cc1OC", "Potency": "active: 7.94 µM"}
{"molecule": "Nc1nnc(-c2ccco2)s1", "activation": "inactive: 8.16%"}
{"molecule": "O=C(NCCN1CCN(c2ccccc2F)CC1)c1cccn2c(=O)c3ccccc3nc12", "Potency": "inconclusive [activator, full curve]"}
{"molecule": "CCn1c(C)csc1=NC(=O)c1ccccc1", "activation": "inactive: 1.88%"}
{"molecule": "COc1ccc(-c2nc3cncnc3n(-c3ccccc3)c2=O)cc1", "activation": "inactive: 5.01%"}
{"molecule": "COc1ncc2ncc(=O)n(C[C@H]3CCCO3)c2n1", "Potency": "inconclusive [activator, single point]"}
{"molecule": "O=C1c2cccc3c(Cl)ccc(c23)C(=O)N1O", "activation": "inactive: -55.1%"}
{"molecule": "Cc1ccc(OCCSc2cc(C)nc(N)n2)cc1", "Potency": "inconclusive [activator, partial curve]"}
{"molecule": "Cc1cc(C)c2nc(N3CCCC(C(=O)NCCN4CCOCC4)C3)sc2c1", "note": "(stereo not drawn)", "activation": "inactive: 6.17%"}
{"molecule": "COc1nc2ccccc2c(=O)n1OCC(C)C", "Potency": "inconclusive [activator, single point]"}
{"molecule": "C=CCn1c(=N)c(C(=O)OC)cc2c(=O)n3cccc(C)c3nc21", "Potency": "inconclusive [activator, single point]"}
{"molecule": "COc1cccc(Cn2c(=O)c(-c3cccs3)nc3cnc(Nc4ccccc4)nc32)c1", "Potency": "inconclusive [activator, single point]"}
{"molecule": "COc1ccc(N(C(=O)c2ccco2)S(=O)(=O)c2cccs2)cc1", "Potency": "inconclusive [activator, single point]"}
{"molecule": "O=S(=O)(NC1CCCC1)c1ccc(S(=O)(=O)N(Cc2cccs2)CC2CCCO2)cc1", "note": "(stereo not drawn)", "Potency": "inconclusive [activator, single point]"}
{"molecule": "Cc1nn(Cc2ccc(F)cc2)c(C)c1NC(=O)c1cnn2cccnc12", "Potency": "inconclusive [activator, single point]"}
{"molecule": "Cc1nn(C)c(N)c1C(O)(c1nccn1C)C(F)(F)F", "note": "(stereo not drawn)", "Potency": "inconclusive [activator, single point]"}
{"molecule": "COc1ccc(-c2cc(C(F)F)nc(-n3nc(C)cc3C)n2)cc1", "Potency": "inconclusive [activator, single point]"}
{"molecule": "CCOC(=O)C1CCCN(c2ccc(NC(=O)c3snc4c(=O)[nH]cnc34)cc2)C1", "note": "(stereo not drawn)", "activation": "inactive: -12.5%"}
{"molecule": "O=C(C1CCN(S(=O)(=O)c2ccc(Br)s2)CC1)N1CCc2ccccc21", "Potency": "inconclusive [activator, partial curve]"}
{"molecule": "CCC(=O)N1CCc2cc(Br)cc(S(=O)(=O)NCC3CCCO3)c21", "note": "(stereo not drawn)", "activation": "inactive: -12%"}
{"molecule": "CCn1nc(C(=O)N2CCc3ccccc3C2)c2ccccc2c1=O", "activation": "inactive: -9.16%"}
{"molecule": "Cc1ccc(C(=O)N(Cc2nc(-c3ccc(C)cc3)no2)C(C)C)cc1", "Potency": "inconclusive [activator, single point]"}
{"molecule": "O=C(CSc1ncnc2c1cnn2-c1ccccc1)Nc1ccccc1", "Potency": "inconclusive [activator, single point]"}
{"molecule": "C=CCSc1nnc(-c2cc(Br)ccc2N)c(=O)[nH]1", "Potency": "inconclusive [activator, single point]"}
{"molecule": "CCOC(=O)c1ccccc1NC(=O)COc1ccccc1", "Potency": "inconclusive [activator, single point]"}
{"molecule": "CCCc1c(OCCCCc2nn[nH]n2)ccc(C(C)=O)c1O", "Potency": "inconclusive [activator, partial curve]"}
{"molecule": "Cc1occc1C(=O)Nc1sc2c(c1C(N)=O)CCCCC2", "Potency": "inconclusive [activator, single point]"}
{"molecule": "CCOC(=O)c1c(NC(=O)CSc2nnc(-c3cccnc3)n2Cc2ccco2)sc(C)c1C", "Potency": "inconclusive [activator, partial curve]"}
{"molecule": "CCc1cc2c(C)cc(=O)oc2cc1OC(=O)C1CCCN1C(=O)OC(C)(C)C", "note": "(stereo not drawn)", "Potency": "inconclusive [activator, partial curve]"}
{"molecule": "c1ccc(CCCNc2ncnc3nc[nH]c23)cc1", "Potency": "inconclusive [activator, single point]"}
{"molecule": "O=C(CSc1ncc(-c2ccc(F)cc2)n1Cc1ccco1)Nc1ccc2c(c1)OCO2", "Potency": "inconclusive [activator, single point]"}
{"molecule": "Cc1cc2n(n1)C(c1ccccc1)Nc1ccccc1-2", "note": "(stereo not drawn)", "activation": "inactive: 1.61%"}
{"molecule": "COc1ccccc1N1CCN(C(c2ccccc2Cl)c2nnnn2C(C)(C)C)CC1", "note": "(stereo not drawn)", "Potency": "inconclusive [activator, single point]"}
{"molecule": "O=C(CSc1nc2c(cnn2-c2ccc(F)cc2)c(=O)[nH]1)N1CCCc2ccccc21", "Potency": "active: 25.1 µM"}
{"molecule": "N#Cc1c(N)oc(-c2ccco2)c1-c1ccco1", "activation": "inactive: -16.3%"}
{"molecule": "CCN1CCN(c2ccc(NC(=O)c3cccc4ncccc34)cc2)CC1", "activation": "inactive: -0.308%"}
{"molecule": "COc1ccc(Cl)cc1NC(=O)CN(C(=O)c1ccco1)C1CCCCC1", "Potency": "active: 3.98 µM"}
{"molecule": "Cc1ccc(C2C(C(=O)c3cc4ccccc4o3)=C(O)C(=O)N2CCN2CCOCC2)o1", "note": "(stereo not drawn)", "Potency": "inconclusive [activator, single point]"}
{"molecule": "COC(=O)NC(CC(C)=O)c1cccs1", "note": "(stereo not drawn)", "activation": "inactive: -5.12% [at 11.4 µM]"}
{"molecule": "CC1=C(C(=O)OCc2ccccc2)C(c2ccc([N+](=O)[O-])cc2)NC(=O)N1CCCCCC(=O)O", "note": "(stereo not drawn)", "activation": "inactive: 24.3%"}
{"molecule": "Cc1cc(C(=O)CN(Cc2ccc(F)cc2)S(=O)(=O)c2ccc3c(c2)OCCO3)c(C)n1C", "activation": "inactive: -1.32%"}
{"molecule": "N#Cc1cc2c(nc1SCC(=O)N1CCCCC1)CCCC2", "Potency": "inconclusive [activator, single point]"}
{"molecule": "COc1cccc(N(C(=O)c2ccn[nH]2)C2(C(=O)Nc3c(C)cccc3C)CCCCC2)c1", "Potency": "inconclusive [activator, partial curve]"}
{"molecule": "CCOC(=O)c1cc2sc(C)cc2n1CC(=O)Nc1ccc2c(c1)OCCO2", "Potency": "inconclusive [activator, full curve]"}
{"molecule": "COc1ccc(N2CCN(C(=O)CN3C(=O)C4CC=CCC4C3=O)CC2)cc1", "note": "(stereo not drawn)", "Potency": "inconclusive [activator, single point]"}
{"molecule": "Cc1cc(C)n(-c2ccc(Cl)c(C(=O)OCC(=O)N3CCCCC3C)n2)n1", "note": "(stereo not drawn)", "Potency": "inconclusive [activator, partial curve]"}
{"molecule": "CN(C)S(=O)(=O)c1ccc2c(c1)c(=O)c(C(=O)N1CCN(c3ccccn3)CC1)cn2C", "Potency": "inconclusive [activator, single point]"}
{"molecule": "Clc1ccc(Cn2ncc3c(N4CCOCC4)ncnc32)cc1", "activation": "inactive: -9.8%"}
{"molecule": "CCS(=O)(=O)NCCc1csc(C)n1", "activation": "inactive: -0.949%"}
{"molecule": "N#Cc1cccc(-c2ccc3ncnc(NCc4cccnc4)c3c2)c1", "activation": "inactive: -7.72%"}
{"molecule": "O=c1c2ccccc2nnn1CSc1nnc(-c2cccs2)n1Cc1ccccc1", "Potency": "inconclusive [activator, partial curve]"}
{"molecule": "CCCC=O", "activation": "inactive: -4.66%"}
{"molecule": "Cc1ccc(C2CC(c3ccco3)n3nc(N)nc3N2)cc1", "note": "(stereo not drawn)", "Potency": "inconclusive [activator, single point]"}
{"molecule": "CN(C)c1ccc(C(=S)N2CCOCC2)cc1Br", "Potency": "inconclusive [activator, single point]"}
{"molecule": "O=C(c1ccccn1)N(CC1CCCO1)C1(C(=O)NC2CCCCC2)CCCCC1", "note": "(stereo not drawn)", "Potency": "inconclusive [activator, partial curve]"}
{"molecule": "Cc1nc(N2CCN(Cc3ccc4c(c3)OCO4)CC2)c2oc3ccccc3c2n1", "Potency": "inconclusive [activator, single point]"}
{"molecule": "CC(=O)Nc1nc(CC(C)C)cc(-c2ccco2)c1C#N", "Potency": "inconclusive [activator, partial curve]"}
{"molecule": "CCOC(=O)CSC1=C(C#N)C(c2ccccc2F)C(C(C)=O)=C(C)N1", "note": "(stereo not drawn)", "Potency": "inconclusive [activator, single point]"}
{"molecule": "CCOc1ccc(Cl)cc1S(=O)(=O)N1CCCC1", "Potency": "inconclusive [activator, partial curve]"}
{"molecule": "Cc1nc(C)c(C(=O)NCc2ccc(Cl)cc2)o1", "Potency": "inconclusive [activator, single point]"}
{"molecule": "CCCn1c(N2CCN(CC(=O)Nc3ccc4c(c3)OCCO4)CC2)nc2ccccc21", "Potency": "inconclusive [activator, single point]"}
{"molecule": "COc1ccccc1-n1c(C)nnc1SCC(N)=O", "Potency": "inconclusive [activator, partial curve]"}
{"molecule": "O=c1c(-c2ccccc2)nc2cnc(Oc3ccccc3)nc2n1C1CC1", "Potency": "inconclusive [activator, partial curve]"}
{"molecule": "O=C(c1ccncc1)N1CCC2(CCCN(c3ccccc3)C2)CC1", "activation": "inactive: 24.7%"}
{"molecule": "C=C(C)C(=O)OCC(C)O", "note": "(stereo not drawn)", "activation": "inactive: 17%"}
{"molecule": "CCC(=O)N1CCN(c2ccc(Cl)cc2NC(=O)Cc2ccccc2)CC1", "Potency": "inconclusive [activator, partial curve]"}
{"molecule": "O=C(CSc1nc2ccccc2o1)Nc1nc2c(s1)CCCC2", "Potency": "active: 31.6 µM"}
{"molecule": "COc1ccc(OC)c(C(c2nnnn2C2CCCC2)N2CCN(c3ccccc3F)CC2)c1", "note": "(stereo not drawn)", "Potency": "inconclusive [activator, partial curve]"}
{"molecule": "O=C(Nc1ncnc2c1CCC2)C12CC3CC(CC(C3)C1)C2", "Potency": "inconclusive [activator, single point]"}
